The other results are listed elsewhere or left out. Shown are side measurements of this screen, not its main read-out; they come without a call.
Experiments:
Test in all cases: Primary Screen for Target Class Profiling of Small Molecule Inhibitors of Methyltransferases
[1] = target: Glycine N-methyltransferase (Homo sapiens) (UniProt Q14749); details: purified enzyme, MTase-Glo SAH luminescence; measured here: GNMT inhibition; at 40 µM; stronger effect = lower value
How it was run: (§1)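 Each enzyme was reacted with SAM and its substrate, with compounds tested once at 40 uM; SAH formed was read by MTase-Glo luminescence.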

[2] = target: Guanidinoacetate N-methyltransferase (Homo sapiens) (UniProt Q14353); details: purified enzyme, MTase-Glo SAH luminescence; measured here: GAMT inhibition; at 40 µM; stronger effect = lower value
How it was run: as §1

[3] = target: Histamine N-methyltransferase (Homo sapiens) (UniProt P50135); details: purified enzyme, MTase-Glo SAH luminescence; measured here: HNMT inhibition; at 40 µM; stronger effect = lower value
How it was run: as §1

[4] = target: Nicotinamide N-methyltransferase (Homo sapiens) (UniProt P40261); details: purified enzyme, MTase-Glo SAH luminescence; measured here: NNMT inhibition; at 40 µM; stronger effect = lower value
How it was run: as §1

[5] = target: Phenylethanolamine N-methyltransferase (Homo sapiens) (UniProt P11086); details: purified enzyme, MTase-Glo SAH luminescence; measured here: PNMT inhibition; at 40 µM; stronger effect = lower value
How it was run: as §1
% is scaled to controls: 0 for no effect and ±100 for the full control effect.

Row | Structure (SMILES) | activity change, negative = inhibition [1] [%] | activity change, negative = inhibition [2] [%] | activity change, negative = inhibition [3] [%] | activity change, negative = inhibition [4] [%] | activity change, negative = inhibition [5] [%]
1 | CC(C)Cn1c(=O)c2ccc(C(=O)NC3CCCC3)cc2n2c(=O)n(CC(=O)Nc3ccccc3)nc12 | 5.47 | 1.35 | 6.24 | 7.33 | 5.34
2 | CN[C@@H](C)C(=O)N1CCC(c2cc(N3CCOCC3)nc(C)n2)CC1 | -3 | -3.42 | -0.367 | -5.46 | -1.54
3 | NC(=O)[C@H](CC1CCCCC1)NC(=O)[C@@H]1CN(C(=O)Nc2ccccc2)CCN1S(=O)(=O)c1ccccc1 | -7.78 | -9.89 | -7.08 | -19.7 | 5.4
4 | CC(CN1C(=O)c2nc3ccccc3n2CC1(C)C(=O)NC1CCCCC1C)c1ccccc1 (configuration not stated) | 1.03 | 2.49 | 4.27 | 0.388 | -1.3
5 | Cc1ccc(Cl)cc1NC(=O)N1CCn2cccc2C1C(C)C (configuration not stated) | 15.6 | 2.34 | 5.79 | 3.35 | 10
6 | Cc1cccc(CNC(=O)c2cc3n(n2)CC(C)(C(=O)NCCC(C)C)N(C)C3=O)c1 (configuration not stated) | -3.38 | 0.66 | -5.79 | -0.203 | -3.31
7 | COc1ccc(CC(=O)N2CCCC2C(=O)N2CCC(c3nc4ccncc4[nH]3)C2)cc1 (configuration not stated) | -1.86 | -2.55 | -3.56 | 0.701 | -1.73
8 | C[C@@]1(O)CCN(C(=O)c2cccc(F)c2)C[C@H]1N1CCCC1 | -7.47 | -1.18 | 0.549 | -1.72 | 1.98
9 | CCCn1c(=O)c2ccc(C(=O)NC3CCCC3)cc2n2c(=O)n(CC(=O)Nc3ccccc3CC)nc12 | 5.79 | 1.94 | 11.4 | 2.87 | 2.3
10 | CC1(C(=O)NC2CCCCC2)Cn2c(cc3ccccc32)C(=O)N1C1CCN(Cc2ccccc2)CC1 (configuration not stated) | 0.562 | 0.724 | 0.629 | 1.12 | -2.47
11 | CNC(=O)c1cc(C2CC2)nc2c1c(C1CCN(C(=O)Cc3ccc(OC)cc3)CC1)nn2C | -7.81 | -6.11 | -2.48 | -12.4 | -5.16
12 | CC(C)c1noc(C2CCCN(S(=O)(=O)c3cccs3)CCC(=O)NCC2)n1 (configuration not stated) | -3.87 | -1.05 | -1.14 | 2.7 | 2.54
13 | CC(C)N1CCN(C(=O)C2CCN(c3cnn(CC4CC4)c(=O)c3)C2)CC1 (configuration not stated) | -2.33 | -0.832 | -1.98 | -7.98 | -0.932
14 | CCc1cccc(NS(=O)(=O)c2cc3c(cc2C)n(C)c(=O)n3C)c1 | 6.52 | 0 | 1.52 | -0.867 | -3.34
15 | O=C1NCc2ccccc2CC12CCCN2Cc1ccc(F)cc1F (configuration not stated) | -5.22 | -5.43 | -4.14 | -17.8 | -23.6
16 | CCOc1cc(CNC(=O)c2cc3n(n2)CC(C)(C(=O)NCc2ccc(C)cc2)N(C)C3=O)ccc1OC (configuration not stated) | -0.369 | 3.91 | 1.99 | 0.483 | 0.74
17 | NC(=O)c1ccccc1Nc1ccnc(Nc2cccc(O)c2)n1 | -27.1 | -5.75 | -25.9 | -51.5 | -6.11
18 | CCn1cc(S(=O)(=O)N2CCC(c3noc(-c4ccncc4)n3)C2)cn1 (configuration not stated) | -0.551 | 2.44 | 2.39 | -1.94 | 2.33
19 | O=C1Nc2ccc(-c3ccsc3)cc2C(=O)N2CCN(C(=O)CO)C[C@H]12 | -9.88 | -1.09 | -7.35 | -1.93 | -5.32

Row | Structure (SMILES) | activity change, negative = inhibition [1] [%] | activity change, negative = inhibition [2] [%] | activity change, negative = inhibition [3] [%] | activity change, negative = inhibition [4] [%] | activity change, negative = inhibition [5] [%]
20 | COC(=O)N[C@H](C(=O)N1[C@@H]2CC[C@@H](C2)[C@H]1c1nc2ccc(-c3ccc4c(c3)C(F)(F)c3cc(-c5cnc([C@@H]6CCC7(CC7)N6C(=O)[C@@H](NC(=O)OC)C(C)C)[nH]5)ccc3-4)cc2[nH]1)C(C)C | 1.53 |  | 2.23 |  | 
21 | Cc1ccc(Cn2c(=O)c3ccccc3n3c(CCC(=O)N4CCN(c5ccc(Cl)cc5)CC4)nnc23)cc1 | -6.09 | -0.023 | 10.5 | 3.36 | -2.71
22 | Cc1ccc(C)c(N2C(=O)c3cc4occc4n3CC2(C)C(=O)NC2CCCCCCC2)c1 (configuration not stated) | 4.53 | -1 | -2.23 | 3.05 | 1.69
23 | C[C@H](CN1CCCC1)C(=O)c1ccc(C(F)(F)F)cc1 | 1.95 | 7.53 | 1.63 | -10.5 | -0.451
24 | CCCC(=O)N1Cc2ccccc2CC2(CCCN(Cc3ccccn3)C2)C1 (configuration not stated) | -6.38 | -4.34 | -3.1 | -12.6 | -9.03
25 | CC1CCC(=O)CC(SCC(O)C(=O)O)CCC(=O)O1 (configuration not stated) | -2.27 | -8.09 | 0.423 | -17.6 | -1.93
26 | CC(=O)OCC(CCn1cnc2cnc(N)nc21)COC(C)=O | -7.32 | 1.04 | -0.211 | -9.17 | 3.65
27 | O=C(Nc1nnc(-c2ccc3c(c2)OCCO3)o1)C1CCCCC1 | -3.14 | -8.16 | 3.21 | -18.3 | -2.48
28 | NNc1nncc2ccccc12 | -16.7 | 9.9 | 0.809 | -10.5 | 1.8
29 | CC(C)CNC(=O)c1ccc2c(=O)n(C(C)C)c3nn(CC(=O)N(C)c4ccc(F)cc4)c(=O)n3c2c1 | 2.99 | 4.49 | 6.01 | -5.74 | 0.441
30 | O=C(Nc1cn[nH]c1-c1nc2ccc(CN3CCOCC3)cc2[nH]1)NC1CC1 | -6.29 | -1.46 | -6.56 | -19.4 | -0.454
31 | NCCOCCOCCNC(=O)Cc1ccc(Nc2nc(NCc3ccc(F)cc3)nc(NCC3CCCCC3)n2)cc1 | -2.41 | 17.1 | -20.7 | -37 | 4.99
32 | O=C(NCc1c[nH]c2ncccc12)c1ccccc1Cl | -8.76 | -7.09 | -5.24 | -15.1 | -11.4
33 | CCc1cc2c(cc3n2CC(C)(C(=O)NC2CCCCCC2)N(CCCN(CC)CC)C3=O)s1 (configuration not stated) | 5.97 | 7.41 | -1.23 | 0.05 | 0.588
34 | Cc1ccc(Cl)cc1Nc1nn2c(=O)c3ccc(C(=O)NCCCOC(C)C)cc3nc2s1 | 3.51 | 0 | 2.95 | 6.57 | 1.93
35 | C=CC(=O)Nc1cccc(Oc2nc(Nc3ccc(N4CCN(C)CC4)cc3OC)ncc2Cl)c1 | -15.9 | -5.35 | -24 | -16.9 | -4.4
36 | CN1CCN(C(=O)c2cc3n(n2)CC(C)(C(=O)NCc2ccccc2)N(C)C3=O)CC1 (configuration not stated) | 1.8 | 0 | 0.385 | 5.39 | 2
37 | CCOc1ccccc1CN1C(=O)c2nc3ccccc3n2CC1(C)C(=O)NC1CCC(C)CC1 (configuration not stated) | -0.352 | 0 | 5.55 | -6.64 | 0.14
38 | COc1cccc(Cn2nc3n(C(C)C)c(=O)c4ccc(C(=O)NCC(C)C)cc4n3c2=O)c1 | -1.39 | 2.94 | 4.35 | -1.74 | 2.09

Source: PubChem BioAssay AID1745853 (National Center for Advancing Translational Sciences (NCATS), 2022)
